# Measured values from PubChem BioAssay AID463173 (ICCB-Longwood Screening Facility, Harvard Medical School, 2010).
# Among all 52,000 compounds or so, about 1,700 (3.3%) were called active. Cut-off read from the data, not from the text of the source: active = survival mostly below about 52% (no sharp cut-off); inactive = mostly above about 56%. This is one part of the list.
# Tested on: Wild type
# Assay: S. aureus survival, RN4220 and DeltatarO strains – OD600, teichoic acid synthesis inhibitors, primary screen (AID 463173)
# Conditions: S. aureus RN4220 wild type/DeltatarO growth, OD600, 18 h, hits give low values, screened at 18.75 µg/mL (by protocol)
row,Compound,survival
1,Cc1ccc(-c2cc(C(=O)N(Cc3ccccc3)Cc3ccco3)no2)cc1F,inactive: 92%
2,COc1ccc(S(=O)(=O)N2c3cc(F)ccc3CCC2C)cc1OC (configuration not stated),inactive: 110%
3,CCOc1ccc(CCNc2nc3c(-c4ccc(C)cc4)nnn3c3ccccc23)cc1OCC,inactive: 81%
4,Cc1ccc(-c2ccc(=O)n(CC(=O)Nc3ccc(F)c(Cl)c3)n2)cc1C,inactive: 81%
5,CCOc1ccccc1C(=O)Nc1ccc(S(=O)(=O)N2CCCCC2c2cccnc2)cc1 (configuration not stated),inactive: 127%
6,COc1ccccc1C(=O)Nc1nnc(S(=O)(=O)N2CCCCCC2)s1,inactive: 81%
7,COc1ccc(-c2nc(CNS(=O)(=O)c3ccc(C)cc3)cs2)cc1,inactive: 88%
8,CCN(c1ccccc1)S(C)(=O)=O,inactive: 101%
9,COc1cccc(NC(=O)CSC2=Nc3ccccc3C3=NC(CCC(=O)NCc4ccco4)C(=O)N23)c1 (configuration not stated),inactive: 75%
10,COC(=O)c1c(C)sc(-c2c(-c3cccc(OC)c3)[nH]c3c2c(=O)[nH]c(=O)n3C)c1O,inactive: 67%
11,CC(=O)Nc1ccc(S(=O)(=O)NC2(C(F)(F)F)NC(=O)N(c3ccc(Cl)cc3)C2=O)cc1 (configuration not stated),inactive: 75%
12,COc1ccc(C(=O)N2CCc3cc(OC)c(OC)cc3C2COc2ccccc2OC)cc1 (configuration not stated),inactive: 113%
13,CCCCN(CC)C(=O)Nc1ccc2c(c1)N(C)C(=O)c1ccccc1S2,inactive: 79%
14,CCCn1c(=O)c2sccc2n2c(CCCC(=O)Nc3ccc(C)c(F)c3)nnc12,inactive: 94%
15,COc1ccc(C)c2sc(N(Cc3cccnc3)C(=O)CCc3ccccc3)nc12,inactive: 77%
16,COc1ccc(-c2noc(CN3CCN(c4ccccc4OC)CC3)n2)cc1OC,inactive: 83%
17,Cn1c(C2CC2)n[nH]c1=S,inactive: 98%
18,Cc1ccc(C(=O)COC(=O)c2cc(-c3ccc(Cl)cc3)nc3ccccc23)cc1,inactive: 117%
19,O=C(NCCO)Nc1c[nH]c2c(Cl)cccc2c1=O,inactive: 111%
20,CCc1cccc2c(C=C(C#N)C#N)cn(CC(=O)NC3CCCC3)c12,inactive: 104%
21,CC1CCN(C(=O)CN(c2ccccc2)S(C)(=O)=O)CC1,inactive: 115%
22,CCc1nnc(SCC(=O)Nc2cc(Cl)c(OC)cc2OC)c2cc3oc(C)cc3n12,inactive: 67%
23,C1=CC2=Nc3cccc[n+]3CN2C=C1,inactive: 120%

row,Compound,survival
1,COc1cccc(N2CC(NC(=O)COc3ccc4ccccc4c3)CC2=O)c1 (configuration not stated),inactive: 94%
2,COc1ccc(OC)c(-c2noc(CSc3nnc(Cc4ccccc4)n3-c3cccc(C)c3)n2)c1,inactive: 70%
3,Cc1noc2nc(C(=O)O)nc(N3CCCCC3)c12,inactive: 73%
4,CC(=O)c1ccc(NC(=O)CCn2nc(C)c(S(=O)(=O)N3CCC(C)CC3)c2C)cc1,active: -6%
5,CC1CCC(NC(=O)Cn2ncc3c4ccccc4n(Cc4ccc(Cl)cc4)c3c2=O)CC1 (configuration not stated),inactive: 94%
6,Cc1ccc(-n2c(=O)c3ccc(C(=O)NCc4ccco4)cc3n(Cc3cccc(Cl)c3)c2=O)cc1,inactive: 84%
7,CC(C)c1cnc2c(c1SCc1cccc(C(F)(F)F)c1)c(=O)n(C)c(=O)n2C,inactive: 85%
8,CS(=O)(=O)N(CC(=O)N1CCCC1)c1cccc(Cl)c1Cl,inactive: 97%
9,CC(C)CCNC(=O)CSCc1cnn(-c2ccccc2)c1-n1cccc1,inactive: 86%
10,CCc1nc(SCC(=O)Nc2ccc(NC(C)=O)cc2)n[nH]1,inactive: 78%
11,Cc1ccc(C(c2nnnn2C2CCCC2)N(C)C2CCCCC2)cc1 (configuration not stated),inactive: 107%
12,O=C(Nc1ccc(F)cc1F)c1noc2c1CCc1ccccc1-2,inactive: 91%
13,Cc1cccc(-n2c3nc(=O)n(C)c(=O)c-3cc3c(Cl)cccc32)c1C,inactive: 79%
14,COC(=O)c1ccccc1NC(=O)Cc1noc2ccc(C)cc12,inactive: 78%
15,O=C(Nc1ccc(Cl)c(Cl)c1)N1CCC(c2ccccc2)C1 (configuration not stated),inactive: 71%
16,COc1ccc(NC(=O)Cn2c(=O)n(Cc3nc(-c4ccccc4)no3)c(=O)c3cc4c(cc32)OCO4)cc1Cl,inactive: 93%
17,Cc1cccn2c(=O)cc(COc3cccc(NC(=O)c4ccccc4F)c3)nc12,active: -6%
18,COc1ccc(Br)cc1CNC(=O)CN1CCSc2ccccc21,inactive: 79%
19,CCc1ccc(NC(=O)CC2C(=O)N(c3ccccc3)C(=O)N2C(C)C)cc1 (configuration not stated),active: -6%
20,Cc1cccc(NC(=S)NC(=O)/C=C/c2ccco2)c1,inactive: 110%
21,COc1ccc(CNc2ncnc3c2nnn3C)cc1,inactive: 77%
22,COC(=O)C1=C(C)N(c2ccc(N(C)C)cc2)C(C)=C(C(=O)OC)C1c1ccccc1,inactive: 101%
23,COc1ccc2c(c1)-c1nc(NC(=O)c3ccc(Cl)cc3)sc1CC2,inactive: 93%

row,Compound,survival
1,Cc1ccc2oc(-c3ccc(Cl)c(NC(=O)c4ccc(-c5ccccc5[N+](=O)[O-])o4)c3)nc2c1,inactive: 76%
2,Cc1cn(C2CC(O)C(CO)O2)c(=O)[nH]c1=O (configuration not stated),inactive: 102%
3,Cc1nn(CC(=O)NCc2ccc(OC(C)C)cc2)c(=O)c2c(C)n(-c3ccc(Cl)cc3)nc12,inactive: 81%
4,COc1ccc(CN2C(=O)C(NC(=O)c3ccccc3C)(C(F)(F)F)N=C2c2ccccc2)cc1 (configuration not stated),inactive: 81%
5,Cc1cccc(NC(=O)Cn2cc(C(=O)c3ccco3)c3ccccc32)c1C,inactive: 81%
6,CCc1ccccc1NC(=O)Cn1nnc(C(=O)Nc2ccc(C)c(F)c2)c1N,inactive: 88%
7,CCCCCOc1ccc(C2c3c(oc4ccccc4c3=O)C(=O)N2c2nc(C)c(C)s2)cc1OCC (configuration not stated),inactive: 74%
8,CSc1ccc(CCNC(=O)Cn2ncc3c(=O)oc4ccc(C)cc4c32)cc1,inactive: 83%
9,CC1(C)CC2CC(C)(CN2C(=O)Cc2ccccc2)C1 (configuration not stated),inactive: 110%
10,OCCNc1nc2ccccc2s1,inactive: 108%
11,COc1ccccc1CCNc1ncnc2c1nnn2C,inactive: 74%
12,COc1ccc(S(=O)(=O)c2c(SC)nn(Cc3ccccc3C)c2NC(C)=O)cc1,inactive: 47%
13,COc1ccc(C)cc1NC(=O)c1ccc2c(Cl)c3c(nc2c1)CCC3,inactive: 90%
14,Cn1nc(C(=O)N2CCN(c3ccccc3)CC2)c2c1-c1ccccc1S(=O)(=O)C2,inactive: 83%
15,CN(C)S(=O)(=O)c1cccc2nsnc12,inactive: 120%
16,O=C(Nc1ccc(O)cc1)c1cccc(S(=O)(=O)N2CCOCC2)c1,inactive: 85%
17,O=C(CSc1nc2c([nH]c3ccccc32)c(=O)n1-c1ccccc1)N1CCCC1,inactive: 72%
18,COc1ccc(S(=O)(=O)CCc2nc3ccccc3n2CC(=O)O)cc1,inactive: 102%
19,CN(C(=O)COc1ccccc1)C1CCS(=O)(=O)C1 (configuration not stated),inactive: 98%
20,S=c1[nH]nc(COc2ccccc2)o1,inactive: 77%
21,COc1cc(C2CC(=O)Nc3c2c(=O)[nH]c2ncnn32)ccc1O (configuration not stated),inactive: 77%
22,CCOc1ccc(N=C2SCC(=O)N2CC)cc1,inactive: 123%
23,CCOC(=O)C1CCCN(C(=O)c2ccc3c(c2)N(Cc2ccccc2)C(=O)c2ccccc2S3=O)C1 (configuration not stated),inactive: 146%

row,Compound,survival
1,Cc1ccc(C)c(NC(=O)Cn2c(=O)n(CCC(=O)NCc3ccc4c(c3)OCO4)c(=O)c3ccccc32)c1,inactive: 103%
2,CCCN1CCCc2cc(CN(CCCN3CCOCC3)C(=O)Nc3ccc(CC)cc3)ccc21,inactive: 123%
3,Cc1ccc(OCC(=O)Nc2ccc3nn(-c4ccc(Cl)cc4)nc3c2)cc1,inactive: 78%
4,CCOC(=O)c1cccc(Nc2ccc3cc(S(=O)(=O)N4CCCCC4)ccc3n2)c1,active: -3%
5,O=c1c2oc3ccccc3c2n(Cc2ccccc2)c(=O)n1Cc1ccc2c(c1)OCO2,inactive: 90%
6,COc1cc2c(cc1OC)n(CC(=O)c1ccc(F)cc1)c(=O)n1nc(CCn3nc(C)cc3C)nc21,inactive: 119%
7,COc1cccc(CNC(=O)c2ccc(NC(=O)N3CCCCc4ccccc43)cc2)c1,inactive: 88%
8,COc1ccc2oc(=O)cc(CN3CCN(c4ccccc4F)CC3)c2c1,inactive: 81%
9,CCCCn1c(=O)c2oc3ccccc3c2n(CC(=O)Nc2cccc(Cl)c2)c1=O,inactive: 87%
10,CCCCc1nn2c(=O)cc(COC(=O)c3ccccc3NC(=O)c3ccccc3OC)nc2s1,inactive: 66%
11,COc1cccc(NS(=O)(=O)c2ccc3[nH]cc(C(=O)N(C)C4CCCCC4)c(=O)c3c2)c1,inactive: 68%
12,CCCC(=O)N1c2nc(C(C)C)nn2C2(CCCCC2)[C@@H]2CCCC[C@@H]21,inactive: 98%
13,Cc1cc(C)cc(NC(=O)N2CCC(NC(=O)C3CCCCC3)CC2)c1,inactive: 107%
14,O=C(Nc1cccc(Cl)c1)c1csnn1,inactive: 88%
15,Cc1ccc(-c2nc(SCC(=O)NCC3CCCO3)c(-c3ccc(C)cc3)[nH]2)cc1 (configuration not stated),inactive: 84%
16,Cc1ccc(C(=O)CSc2nnc(-c3cccc(C)c3)o2)cc1,inactive: 113%
17,Cc1ccc(NC(=O)C2CC=CCC2C(=O)N2CCCCC2)cc1 (configuration not stated),inactive: 98%
18,NC(=O)c1cc(S(=O)(=O)NCC2CCC(C(=O)Nc3ccc(Cl)cc3)CC2)cs1 (configuration not stated),inactive: 65%
19,Cc1nnc(N2CCN(C(=O)Nc3cccc(C(F)(F)F)c3)CC2)c2nn(-c3ccccc3)c(C)c12,inactive: 72%
20,Cc1cccc(NC(=O)C(O)C(O)C(=O)Nc2cccc(C)c2)c1 (configuration not stated),inactive: 108%
21,CCOC(=O)c1[nH]c(C)c(CCC(=O)Nc2ccccc2C(=O)OC)c1C,inactive: 73%
22,CCc1nn(CC(=O)NCCc2ccc(Cl)cc2)c(=O)c2cc3ccccc3n12,inactive: 77%
23,Cc1cc(N2CCN(c3ccc(F)cc3)CC2)n2nc(-c3ccc(Cl)cc3)nc2n1,inactive: 80%
